In publication PMC6901573 (2019):

Assays:
Assay in all cases: SPR
[1] = target: α-semi-methemoglobin (Homo sapiens, UniProt P69905)
[2] = target: methemoglobin (Homo sapiens, UniProt P69905)
[3] = target: β-semi-methemoglobin (Homo sapiens, UniProt P69905)

B1: IsdB (protein)
chain: not shown
modifications: met heme in alpha only
B1 was tested, and the Kd [1] was 108 nM.

B2: IsdB (protein)
chain: not shown
modifications: met heme
With B2 the Kd [2] was 70 nM.

B3: IsdB (protein)
chain: not shown
modifications: met heme in beta only
In the case of B3, the Kd [3] is reported as 91 nM.
